# Measured values: the BET-seq Pho4 binding data (Le et al. 2018)
# The list shows a part of the results. The energies were worked out here from pooled read counts, against the library average; single values are noisy.
# Target: T1, Pho4 (S. cerevisiae) (UniProt P07270)
# T1 sequence: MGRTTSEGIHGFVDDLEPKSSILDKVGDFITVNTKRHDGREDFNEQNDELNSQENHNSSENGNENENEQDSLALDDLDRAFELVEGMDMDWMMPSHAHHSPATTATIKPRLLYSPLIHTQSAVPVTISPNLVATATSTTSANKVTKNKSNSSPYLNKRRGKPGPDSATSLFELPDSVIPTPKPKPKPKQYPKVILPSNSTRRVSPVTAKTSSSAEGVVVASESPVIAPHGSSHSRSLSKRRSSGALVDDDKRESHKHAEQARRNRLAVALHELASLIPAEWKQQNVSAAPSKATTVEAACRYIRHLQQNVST
# Assay: relative binding free energy (BET-seq); higher = weaker binding
# Details: reference: library average
row,Sequence,relative binding free energy [kcal/mol]
1,ACTTGCACGTGCAGGG,-0.03
2,GTAAGCACGTGGGATG,-0.13
3,TTGGTCACGTGCCTTG,-0.12
4,ATAGTCACGTGGCCGG,0.07
5,GTTGCCACGTGTATTA,0.1
6,AAGGCCACGTGTTATG,-0.07
7,TTGGACACGTGTAGTG,0.06
8,TGCGGCACGTGTCGGG,-0.08
9,GAATACACGTGCTTGT,0.19
10,TGTATCACGTGTATGG,0.14
11,ATCTACACGTGATTGT,0.19
12,TCATTCACGTGGAATG,0.33
13,GCTTTCACGTGGATGG,0.41
14,ATGGACACGTGCTGGG,-0.03
15,AATATCACGTGGTGAC,0.44
16,GGGTACACGTGAATAT,0.36
17,TGGTACACGTGGAGTA,0.08
18,GATAACACGTGGTTGG,-0.1
19,GTTGCCACGTGGTTCG,-0.06
20,AATGGCACGTGGTCAG,-0.13
21,TGTAGCACGTGCTAAT,0.07
22,TGTAGCACGTGCGGAA,-0.15
23,ATGAACACGTGTGGGC,0.05

row,Sequence,relative binding free energy [kcal/mol]
1,GTCAGCACGTGAGGTA,0.19
2,GGCCTCACGTGGATGT,0.28
3,CTTTGCACGTGGATGG,-0.06
4,TTAGACACGTGGTATT,-0.09
5,TCTGACACGTGGTGCT,-0.04
6,TTTTTCACGTGGCTTG,0.21
7,ATTATCACGTGTGTGA,0.16
8,GCGGGCACGTGGGCGA,-0.29
9,TTAGGCACGTGATCCG,-0.04
10,AGGTACACGTGTTCGG,0.01
11,TTTCACACGTGTGTGA,0
12,GTGTGCACGTGCGACG,0.06
13,AGTGGCACGTGAGTCA,0.14
14,ATTGTCACGTGTATGC,-0.01
15,GTTAGCACGTGCAGGT,0
16,ATTTGCACGTGGCTTT,-0.04
17,AGCGACACGTGGTTGT,-0.06
18,GTGGTCACGTGGGCTA,-0.09
19,GGTAGCACGTGCTATG,-0.05
20,TGTGTCACGTGGGGAG,0.01
21,GGGTGCACGTGTAGCA,0.03
22,GTGATCACGTGCTAGG,0.01
23,TAGAGCACGTGTAGTG,-0.08

row,Sequence,relative binding free energy [kcal/mol]
1,CGGGACACGTGTTGTT,0.2
2,TTGGGCACGTGGTCAA,-0.21
3,TTTGACACGTGTGGGA,0.09
4,TGCGTCACGTGTGGTC,-0.06
5,CACGGCACGTGTTGTG,-0.04
6,TATTGCACGTGAGCGG,0.15
7,ACGGGCACGTGTGAAG,-0.07
8,TTTATCACGTGTGAAA,0.25
9,GTAATCACGTGTGAGG,0.23
10,TAGGACACGTGTTTAT,0.02
11,AGTGGCACGTGGCGGA,-0.21
12,TATTGCACGTGTAAAA,0.06
13,ATTGACACGTGGTGGG,-0.08
14,GTAGTCACGTGGTAGG,0.12
15,TTGGGCACGTGAATGG,0.14
16,TAACGCACGTGGTTTT,-0.08
17,AGGGGCACGTGCGATT,-0.23
18,AATATCACGTGGTTGT,0.17
19,CGGGGCACGTGTTATA,-0.19
20,GATTGCACGTGTTCTG,-0.03
21,TTCATCACGTGGCGTT,0.19
22,GATGTCACGTGTGATC,0.29
23,TTTTACACGTGAGGAT,0.33

row,Sequence,relative binding free energy [kcal/mol]
1,GTTTTCACGTGAAAAT,0.41
2,TTGGACACGTGGGCTA,0.05
3,GGAATCACGTGAAGGA,0.56
4,TTGGGCACGTGTTTCT,-0.15
5,TGGGTCACGTGTTCGC,0.16
6,ATTCTCACGTGGGGGG,0.14
7,TCTGTCACGTGGTAAA,0.11
8,ATTTTCACGTGTTGCT,0.23
9,TGTAGCACGTGGTTCT,-0.22
10,CTTATCACGTGGTTTA,0.02
11,TAATGCACGTGAAGGA,0.27
12,TGGTGCACGTGTAGTT,0.13
13,ACTGTCACGTGGGTGT,-0.01
14,ATTAACACGTGCGTGT,-0.13
15,TTTTTCACGTGGAATA,0.33
16,AGGAACACGTGGTATG,-0.15
17,GTAATCACGTGTGTGC,0.31
18,GGCGACACGTGTGGGC,0.19
19,CTTCACACGTGGGGGA,0.05
20,GCTTACACGTGTAGTT,0.19
21,TAAGTCACGTGCGTTG,0.06
22,TGGGCCACGTGGGGCG,-0.25
23,TTGATCACGTGTCTAT,0.11

row,Sequence,relative binding free energy [kcal/mol]
1,ATAGACACGTGTGTGC,0.03
2,GGGGGCACGTGCGATA,-0.04
3,TTTGTCACGTGAGATC,0.32
4,AGGTACACGTGGTCTT,-0.02
5,TCAGCCACGTGGGGGG,-0.15
6,GGAGGCACGTGGGTTA,-0.16
7,TCGCTCACGTGAGGTT,0.43
8,CTGGACACGTGTTTTG,-0.07
9,ACGTGCACGTGTATGG,-0.08
10,TGGGCCACGTGGCTTT,-0.1
11,ATAAACACGTGTTTTG,0.03
12,GGTTTCACGTGAGGAC,0.56
13,TCACGCACGTGGTGGT,-0.21
14,TTGGTCACGTGGTTCT,0.05
15,GTCGTCACGTGTTTGA,0.19
16,TGAAGCACGTGGAGCG,-0.06
17,ATTGACACGTGGGGTA,-0.17
18,ATTTACACGTGGGAAT,-0.03
19,GCTGGCACGTGCAGTG,-0.04
20,TGGCACACGTGGAGGT,0.06
21,GTGAACACGTGTTAGT,-0.01
22,GTTCTCACGTGAGGGC,0.47
23,TTGTACACGTGGATTA,0.01
